# This is one part of the list.
# B1: HPL (Tachypleus tridentatus) (protein)
# chain: MEDDCTCVTDRSLEGKLMKHPSTPAVYQILDGCRRLVPNPPTYNNIYKNWECIQSNILEKLLCKCDSLSNGAELIKGSGDTVYLLSNGVKRPIADPETFNGFCFDWNKIKTYSDIVINSLSTGPIIIIKHHHHHH
# How the values were obtained:
# Assay in all cases: glycan array binding signal (z-score within array); higher = stronger binding
# Conditions in all cases: glycan notation: IUPAC condensed, linker removed
# [1] = biological target: Gal(b1-4)GlcNAc(b1-2)[Gal(b1-4)GlcNAc(b1-6)]Man(a1-6)[GlcNAc(b1-4)][Gal(b1-4)GlcNAc(b1-2)Man(a1-3)]Man(b1-4)GlcNAc(b1-4)GlcNAc
# Method in brief: (§1)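 The Consortium for Functional Glycomics database supplied 3228 glycan arrays, of which those lacking an available protein sequence were dropped. The binding signal, a within-array Z-score, was averaged across arrays of the same protein sequence and across linkers. Negative scores can be read as non-binding.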
# [2] = biological target: Gal(b1-4)GlcNAc(b1-2)[Gal(b1-4)GlcNAc(b1-6)]Man(a1-6)[GlcNAc(b1-4)][Gal(b1-4)GlcNAc(b1-2)[Gal(b1-4)GlcNAc(b1-4)]Man(a1-3)]Man(b1-4)GlcNAc(b1-4)[Fuc(a1-6)]GlcNAc
# Method in brief: as §1
# [3] = biological target: Gal(b1-4)GlcNAc(b1-3)Gal(b1-3)GalNAc
# Method in brief: as §1
# [4] = biological target: Gal(b1-4)GlcNAc(b1-3)Gal(b1-3)GlcNAc
# Method in brief: as §1
# [5] = biological target: Gal(b1-4)GlcNAc(b1-3)Gal(b1-4)Glc
# Method in brief: as §1
# [6] = biological target: Gal(b1-4)GlcNAc(b1-3)Gal(b1-4)GlcNAc
# Method in brief: as §1
# [7] = biological target: Gal(b1-4)GlcNAc(b1-3)Gal(b1-4)GlcNAc(b1-2)Man(a1-3)[Gal(b1-4)GlcNAc(b1-3)Gal(b1-4)GlcNAc(b1-2)Man(a1-6)]Man(b1-4)GlcNAc(b1-4)GlcNAc
# Method in brief: as §1
# [8] = biological target: Gal(b1-4)GlcNAc(b1-3)Gal(b1-4)GlcNAc(b1-2)Man(a1-3)[Gal(b1-4)GlcNAc(b1-3)Gal(b1-4)GlcNAc(b1-2)Man(a1-6)]Man(b1-4)GlcNAc(b1-4)[Fuc(a1-6)]GlcNAc
# Method in brief: as §1
# [9] = biological target: Gal(b1-4)GlcNAc(b1-3)Gal(b1-4)GlcNAc(b1-2)[Gal(b1-4)GlcNAc(b1-3)Gal(b1-4)GlcNAc(b1-6)]Man(a1-6)[Gal(b1-4)GlcNAc(b1-3)Gal(b1-4)GlcNAc(b1-2)Man(a1-3)]Man(b1-4)GlcNAc(b1-4)GlcNAc
# Method in brief: as §1
# [10] = biological target: Gal(b1-4)GlcNAc(b1-3)Gal(b1-4)GlcNAc(b1-2)[Gal(b1-4)GlcNAc(b1-3)Gal(b1-4)GlcNAc(b1-6)]Man(a1-6)[Gal(b1-4)GlcNAc(b1-3)Gal(b1-4)GlcNAc(b1-2)Man(a1-3)]Man(b1-4)GlcNAc(b1-4)[Fuc(a1-6)]GlcNAc
# Method in brief: as §1
# [11] = biological target: Gal(b1-4)GlcNAc(b1-3)Gal(b1-4)GlcNAc(b1-3)Gal(b1-4)GlcNAc
# Method in brief: as §1
# [12] = biological target: Gal(b1-4)GlcNAc(b1-3)Gal(b1-4)GlcNAc(b1-3)Gal(b1-4)GlcNAc(b1-2)Man(a1-3)[Gal(b1-4)GlcNAc(b1-3)Gal(b1-4)GlcNAc(b1-3)Gal(b1-4)GlcNAc(b1-2)Man(a1-6)]Man(b1-4)GlcNAc(b1-4)GlcNAc
# Method in brief: as §1
# [13] = biological target: Gal(b1-4)GlcNAc(b1-3)Gal(b1-4)GlcNAc(b1-3)Gal(b1-4)GlcNAc(b1-2)Man(a1-3)[Gal(b1-4)GlcNAc(b1-3)Gal(b1-4)GlcNAc(b1-3)Gal(b1-4)GlcNAc(b1-2)Man(a1-6)]Man(b1-4)GlcNAc(b1-4)[Fuc(a1-6)]GlcNAc
# Method in brief: as §1
# [14] = biological target: Gal(b1-4)GlcNAc(b1-3)Gal(b1-4)GlcNAc(b1-3)Gal(b1-4)GlcNAc(b1-2)[Gal(b1-4)GlcNAc(b1-3)Gal(b1-4)GlcNAc(b1-3)Gal(b1-4)GlcNAc(b1-6)]Man(a1-6)[Gal(b1-4)GlcNAc(b1-3)Gal(b1-4)GlcNAc(b1-3)Gal(b1-4)GlcNAc(b1-2)Man(a1-3)]Man(b1-4)GlcNAc(b1-4)[Fuc(a1-6)]GlcNAc
# Method in brief: as §1
# [15] = biological target: Gal(b1-4)GlcNAc(b1-3)Gal(b1-4)GlcNAc(b1-3)Gal(b1-4)GlcNAc(b1-3)Gal(b1-4)GlcNAc(b1-2)Man(a1-3)[Gal(b1-4)GlcNAc(b1-3)Gal(b1-4)GlcNAc(b1-3)Gal(b1-4)GlcNAc(b1-3)Gal(b1-4)GlcNAc(b1-2)Man(a1-6)]Man(b1-4)GlcNAc(b1-4)GlcNAc
# Method in brief: as §1
# [16] = biological target: Gal(b1-4)GlcNAc(b1-3)Gal(b1-4)GlcNAc(b1-3)Gal(b1-4)GlcNAc(b1-3)Gal(b1-4)GlcNAc(b1-2)Man(a1-3)[Gal(b1-4)GlcNAc(b1-3)Gal(b1-4)GlcNAc(b1-3)Gal(b1-4)GlcNAc(b1-3)Gal(b1-4)GlcNAc(b1-2)Man(a1-6)]Man(b1-4)GlcNAc(b1-4)[Fuc(a1-6)]GlcNAc
# Method in brief: as §1
# [17] = biological target: Gal(b1-4)GlcNAc(b1-3)Gal(b1-4)GlcNAc(b1-3)Gal(b1-4)GlcNAc(b1-3)Gal(b1-4)GlcNAc(b1-2)[Gal(b1-4)GlcNAc(b1-3)Gal(b1-4)GlcNAc(b1-3)Gal(b1-4)GlcNAc(b1-3)Gal(b1-4)GlcNAc(b1-6)]Man(a1-6)[Gal(b1-4)GlcNAc(b1-3)Gal(b1-4)GlcNAc(b1-3)Gal(b1-4)GlcNAc(b1-3)Gal(b1-4)GlcNAc(b1-2)Man(a1-3)]Man(b1-4)GlcNAc(b1-4)[Fuc(a1-6)]GlcNAc
# Method in brief: as §1
# [18] = biological target: Gal(b1-4)GlcNAc(b1-3)Gal(b1-4)GlcNAc(b1-3)Gal(b1-4)GlcNAc(b1-3)Gal(b1-4)GlcNAc(b1-3)Gal(b1-4)GlcNAc(b1-2)Man(a1-3)[Gal(b1-4)GlcNAc(b1-3)Gal(b1-4)GlcNAc(b1-3)Gal(b1-4)GlcNAc(b1-3)Gal(b1-4)GlcNAc(b1-3)Gal(b1-4)GlcNAc(b1-2)Man(a1-6)]Man(b1-4)GlcNAc(b1-4)GlcNAc
# Method in brief: as §1
# [19] = biological target: Gal(b1-4)GlcNAc(b1-3)Gal(b1-4)GlcNAc(b1-3)Gal(b1-4)GlcNAc(b1-3)Gal(b1-4)GlcNAc(b1-3)Gal(b1-4)GlcNAc(b1-2)Man(a1-3)[Gal(b1-4)GlcNAc(b1-3)Gal(b1-4)GlcNAc(b1-3)Gal(b1-4)GlcNAc(b1-3)Gal(b1-4)GlcNAc(b1-3)Gal(b1-4)GlcNAc(b1-2)Man(a1-6)]Man(b1-4)GlcNAc(b1-4)[Fuc(a1-6)]GlcNAc
# Method in brief: as §1
# [20] = biological target: Gal(b1-4)GlcNAc(b1-3)Gal(b1-4)GlcNAc(b1-3)Gal(b1-4)GlcNAc(b1-3)Gal(b1-4)GlcNAc(b1-3)Gal(b1-4)GlcNAc(b1-2)[Gal(b1-4)GlcNAc(b1-3)Gal(b1-4)GlcNAc(b1-3)Gal(b1-4)GlcNAc(b1-3)Gal(b1-4)GlcNAc(b1-3)Gal(b1-4)GlcNAc(b1-6)]Man(a1-6)[Gal(b1-4)GlcNAc(b1-3)Gal(b1-4)GlcNAc(b1-3)Gal(b1-4)GlcNAc(b1-3)Gal(b1-4)GlcNAc(b1-3)Gal(b1-4)GlcNAc(b1-2)Man(a1-3)]Man(b1-4)GlcNAc(b1-4)[Fuc(a1-6)]GlcNAc
# Method in brief: as §1
# [21] = biological target: Gal(b1-4)GlcNAc(b1-3)Gal(b1-4)GlcNAc(b1-3)Gal(b1-4)GlcNAc(b1-3)Gal(b1-4)GlcNAc(b1-3)Gal(b1-4)GlcNAc(b1-3)Gal(b1-4)GlcNAc(b1-2)Man(a1-3)[Gal(b1-4)GlcNAc(b1-3)Gal(b1-4)GlcNAc(b1-3)Gal(b1-4)GlcNAc(b1-3)Gal(b1-4)GlcNAc(b1-3)Gal(b1-4)GlcNAc(b1-3)Gal(b1-4)GlcNAc(b1-2)Man(a1-6)]Man(b1-4)GlcNAc(b1-4)GlcNAc
# Method in brief: as §1
# [22] = biological target: Gal(b1-4)GlcNAc(b1-3)Gal(b1-4)GlcNAc(b1-3)GalNAc
# Method in brief: as §1
# [23] = biological target: Gal(b1-4)GlcNAc(b1-3)Gal(b1-4)GlcNAc(b1-3)[Gal(b1-4)GlcNAc(b1-3)Gal(b1-4)GlcNAc(b1-6)]GalNAc
# Method in brief: as §1
binder,measurement,setting,value
B1,glycan array binding signal (z-score),[1],-0.058
same,glycan array binding signal (z-score),[2],-0.047
same,glycan array binding signal (z-score),[3],-0.372
same,glycan array binding signal (z-score),[4],0.152
same,glycan array binding signal (z-score),[5],-0.233
same,glycan array binding signal (z-score),[6],-0.345
same,glycan array binding signal (z-score),[7],0.115
same,glycan array binding signal (z-score),[8],-0.061
same,glycan array binding signal (z-score),[9],2.19
same,glycan array binding signal (z-score),[10],-0.007
same,glycan array binding signal (z-score),[11],-0.229
same,glycan array binding signal (z-score),[12],0.447
same,glycan array binding signal (z-score),[13],0.169
same,glycan array binding signal (z-score),[14],0.189
same,glycan array binding signal (z-score),[15],0.062
same,glycan array binding signal (z-score),[16],-0.001
same,glycan array binding signal (z-score),[17],0.091
same,glycan array binding signal (z-score),[18],0.129
same,glycan array binding signal (z-score),[19],0.917
same,glycan array binding signal (z-score),[20],0.296
same,glycan array binding signal (z-score),[21],-0.206
same,glycan array binding signal (z-score),[22],0.049
same,glycan array binding signal (z-score),[23],0.221
